Data taken from patent US8618162B2 (priority 2007, dated 2013).
At least one structure is not confirmed: it was looked up by name or label, or the drawing left a doubt. Some entries share one result that the patent states for a list of compounds.

Tests used:
Ag ace-1S = format: biochemical, Anopheles gambiae; conditions: selectivity, values in parenthesis
Ag hmg AChE = target: T1, Ag hmg AChE (Anopheles gambiae, UniProt Q869C3); assay: Ellman AChE inhibition assay, Anopheles gambiae homogenate (Ag hmg); format: biochemical; conditions: for inhibition of AgAChE (FIG. 3 dose-response): at concentrations where hAChE undergoes no measurable inhibition, AgAChE source not stated; for IC50 ratio (hAChE/Ag hmg): selectivity, values in parenthesis
T1 construct: To prepare the Ag homogenate (Ag hmg) 10 Anopheles gambiae mosquitoes were combined; from tissue; host or cells: whole Anopheles gambiae mosquitoes, crude homogenate supernatant

hAChE = target: T2, hAChE (Homo sapiens, UniProt P22303); assay: Ellman AChE inhibition assay, recombinant hAChE; format: biochemical; conditions: at concentrations giving >90% inhibition of AgAChE
T2 construct: purchased Sigma C1682

Anopheles gambiae = assay: Live mosquito contact toxicity, WHO filter paper assay; format: in vivo; conditions: at 11 ug/cm^2, 1 hr exposure

T1 sequence (Q869C3 39-737): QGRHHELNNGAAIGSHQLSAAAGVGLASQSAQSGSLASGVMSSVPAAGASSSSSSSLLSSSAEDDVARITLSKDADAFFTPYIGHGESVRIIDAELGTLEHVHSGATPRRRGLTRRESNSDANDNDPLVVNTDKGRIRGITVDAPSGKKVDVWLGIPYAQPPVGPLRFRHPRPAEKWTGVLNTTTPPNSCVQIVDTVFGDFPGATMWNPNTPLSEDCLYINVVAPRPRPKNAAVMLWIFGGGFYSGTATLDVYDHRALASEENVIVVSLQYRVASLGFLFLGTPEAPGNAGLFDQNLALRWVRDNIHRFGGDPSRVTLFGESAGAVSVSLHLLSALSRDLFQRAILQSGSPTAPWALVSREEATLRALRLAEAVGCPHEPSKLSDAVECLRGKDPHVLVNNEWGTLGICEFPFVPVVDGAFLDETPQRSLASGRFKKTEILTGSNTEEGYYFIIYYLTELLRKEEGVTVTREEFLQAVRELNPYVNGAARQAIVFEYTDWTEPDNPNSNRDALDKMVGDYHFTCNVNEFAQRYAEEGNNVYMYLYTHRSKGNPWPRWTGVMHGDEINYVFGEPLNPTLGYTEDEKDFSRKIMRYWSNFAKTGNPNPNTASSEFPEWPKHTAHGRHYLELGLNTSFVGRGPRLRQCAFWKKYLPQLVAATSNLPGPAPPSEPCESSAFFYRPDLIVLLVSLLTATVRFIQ
T2 sequence (P22303 32-614): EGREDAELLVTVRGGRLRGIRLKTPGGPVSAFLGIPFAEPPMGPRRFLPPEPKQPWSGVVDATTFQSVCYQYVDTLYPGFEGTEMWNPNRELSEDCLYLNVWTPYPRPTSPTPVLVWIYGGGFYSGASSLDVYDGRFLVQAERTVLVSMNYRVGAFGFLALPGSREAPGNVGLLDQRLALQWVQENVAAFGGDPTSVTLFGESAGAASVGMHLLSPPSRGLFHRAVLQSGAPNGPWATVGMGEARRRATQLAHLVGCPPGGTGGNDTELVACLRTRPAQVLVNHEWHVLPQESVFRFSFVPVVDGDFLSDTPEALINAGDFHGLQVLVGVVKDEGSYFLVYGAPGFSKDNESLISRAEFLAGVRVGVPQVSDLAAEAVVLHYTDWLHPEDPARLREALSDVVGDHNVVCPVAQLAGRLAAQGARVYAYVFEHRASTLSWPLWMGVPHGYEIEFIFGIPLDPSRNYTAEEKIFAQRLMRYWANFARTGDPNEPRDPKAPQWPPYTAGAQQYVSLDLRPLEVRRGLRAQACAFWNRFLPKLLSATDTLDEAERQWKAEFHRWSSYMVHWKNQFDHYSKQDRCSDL

For `CCC(CC)CSc1ccccc1OC(=O)NC` [Compound 1b, 2-(2-ethylbutylthio)phenyl-N-methylcarbamate], the “IC50 ratio (hAChE/Ag ace-1S)” value (Ag ace-1S) was 1250 x, the “inhibition of AgAChE (FIG. 3 dose-response)” value (Ag hmg AChE) was greater than 90% and the “IC50 ratio (hAChE/Ag hmg)” value (Ag hmg AChE) was 1210 x. The “inhibition of hAChE (FIG. 3 dose-response)” value (hAChE) was “no measurable inhibition”.

`CC(C)NC(=O)Oc1cccc(C(C)(C)C)c1` [Compound 1d, N-isopropyl-3-tert-butylphenylcarbamate] was tested, and the “lethality at 24 h” value (Anopheles gambiae) was “None at 11”.

`CCC(CC)COc1ccccc1OC(=O)NC` [Compound 2b, 2-(2-ethylbutoxy)phenyl-N-methylcarbamate] was tested, and the “IC50 ratio (hAChE/Ag ace-1S)” value (Ag ace-1S) was 9,900 x, the “inhibition of AgAChE (FIG. 3 dose-response)” value (Ag hmg AChE) was greater than 90% and the “IC50 ratio (hAChE/Ag hmg)” value (Ag hmg AChE) was 1,400 x. For the same molecule, the “inhibition of hAChE (FIG. 3 dose-response)” value (hAChE) was “no measurable inhibition”.

For `CCC(CC)C[S+]([O-])c1ccccc1OC(=O)NC` (stereo not shown) [Compound 3b, 2-(2-ethylbutylsulfinyl)phenyl-N-methylcarbamate], the “IC50 ratio (hAChE/Ag hmg)” value (Ag hmg AChE) was 1.1 x.

`CCC(C)CSc1ccccc1OC(=O)NC` (stereo not shown) [Compound 4b, 2-(2-methylbutylthio)phenyl-N-methylcarbamate] was tested, and the “IC50 ratio (hAChE/Ag ace-1S)” value (Ag ace-1S) was 131 x and the “IC50 ratio (hAChE/Ag hmg)” value (Ag hmg AChE) was 118 x.

`CNC(=O)Oc1ccccc1SC(C)C` [Compound 5b, 2-(isopropylthio)phenyl-N-methylcarbamate] was tested, and the “IC50 ratio (hAChE/Ag hmg)” value (Ag hmg AChE) was 29 x.

In the case of `CNC(=O)Oc1ccccc1SCC(C)C` [Compound 6b, 2-(isobutylthio)phenyl-N-methylcarbamate], the “IC50 ratio (hAChE/Ag hmg)” value (Ag hmg AChE) is reported as 74 x.

In the case of `CNC(=O)Oc1ccccc1SCC(C)(C)C` [Compound 7b, 2-(neopentylthio)phenyl-N-methylcarbamate], the “IC50 ratio (hAChE/Ag ace-1S)” value (Ag ace-1S) is reported as 49 x and the “IC50 ratio (hAChE/Ag hmg)” value (Ag hmg AChE) is reported as 19 x.

For `C=C(C)CSc1ccccc1OC(=O)NC` [Compound 8b, 2-(2-methylallylthio)phenyl-N-methylcarbamate], the “IC50 ratio (hAChE/Ag ace-1S)” value (Ag ace-1S) was 58 x and the “IC50 ratio (hAChE/Ag hmg)” value (Ag hmg AChE) was 77 x.

For `CNC(=O)Oc1ccccc1SCC1CCCCC1` [Compound 9b, 2-(cyclohexylmethylthio)phenyl-N-methylcarbamate], the “IC50 ratio (hAChE/Ag hmg)” value (Ag hmg AChE) was 0.61 x.

With `CNC(=O)Oc1ccccc1SCC1CCCC1` [Compound 11b, 2-(cyclopentylmethylthio)phenyl-N-methylcarbamate] the “IC50 ratio (hAChE/Ag ace-1S)” value (Ag ace-1S) was 18 x and the “IC50 ratio (hAChE/Ag hmg)” value (Ag hmg AChE) was 6.2 x.

With `CNC(=O)Oc1ccccc1OCC1CCCC1` [Compound 12b, 2-(cyclopentylmethoxy)phenyl-N-methylcarbamate] the “IC50 ratio (hAChE/Ag hmg)” value (Ag hmg AChE) was 4 x.

For `CNC(=O)Oc1ccccc1OCC(C)C` [Compound 13b, 2-isobutoxyphenyl-N-methylcarbamate], the “IC50 ratio (hAChE/Ag ace-1S)” value (Ag ace-1S) was 100 x and the “IC50 ratio (hAChE/Ag hmg)” value (Ag hmg AChE) was 32 x.

For `C=C(Cl)CSc1ccccc1OC(=O)NC` [Compound 14b, 2-(2-chloroallylthio)phenyl-N-methylcarbamate], the “IC50 ratio (hAChE/Ag ace-1S)” value (Ag ace-1S) was 12 x and the “IC50 ratio (hAChE/Ag hmg)” value (Ag hmg AChE) was 27 x.

With `C=C(Br)CSc1ccccc1OC(=O)NC` [Compound 15b, 2-(2-bromoallylthio)phenyl-N-methylcarbamate] the “IC50 ratio (hAChE/Ag ace-1S)” value (Ag ace-1S) was 9.6 x and the “IC50 ratio (hAChE/Ag hmg)” value (Ag hmg AChE) was 6.7 x.

`C=CCSc1ccccc1OC(=O)NC` [Compound 16b, 2-(allylthio)phenyl-N-methylcarbamate] was tested, and the “IC50 ratio (hAChE/Ag ace-1S)” value (Ag ace-1S) was 44 x and the “IC50 ratio (hAChE/Ag hmg)” value (Ag hmg AChE) was 10 x.

For `C/C=C/CSc1ccccc1OC(=O)NC` [Compound 17b, (E)-2-(but-2-enylthio)phenyl-N-methylcarbamate], the “IC50 ratio (hAChE/Ag ace-1S)” value (Ag ace-1S) was 7.3 x and the “IC50 ratio (hAChE/Ag hmg)” value (Ag hmg AChE) was 8.7 x.

In the case of `CNC(=O)Oc1ccccc1SCC=C(C)C` [Compound 18b, 2-(3-methylbut-2-enylthio)phenyl-N-methylcarbamate], the “IC50 ratio (hAChE/Ag ace-1S)” value (Ag ace-1S) is reported as 6.6 x and the “IC50 ratio (hAChE/Ag hmg)” value (Ag hmg AChE) is reported as 2.3 x.

In the case of `CNC(=O)Oc1ccccc1SCc1ccccc1` [Compound 19b, 2-(benzylthio)phenyl-N-methylcarbamate], the “IC50 ratio (hAChE/Ag ace-1S)” value (Ag ace-1S) is reported as 4.1 x, the “IC50 ratio (hAChE/Ag hmg)” value (Ag hmg AChE) is reported as 2.3 x and the “lethality at 24 h” value (Anopheles gambiae) is reported as “None at 11”.

In the case of `C=C(C)COc1ccccc1OC(=O)NC` [Compound 20b, 2-(2-methylallyloxy)phenyl-N-methylcarbamate], the “IC50 ratio (hAChE/Ag hmg)” value (Ag hmg AChE) is reported as 46 x.

For `C=C(Br)COc1ccccc1OC(=O)NC` [Compound 21b, 2-(2-bromoallyloxy)phenyl-N-methylcarbamate], the “IC50 ratio (hAChE/Ag ace-1S)” value (Ag ace-1S) was 43 x and the “IC50 ratio (hAChE/Ag hmg)” value (Ag hmg AChE) was 30 x.
